Test results taken from patent publication US4958010A, “Epipodophyllotoxin glucoside lactam derivatives” (Bristol-Myers Company, priority 1989, dated 1990).
The name of at least one read-out is uncertain.

System: P388 Murine Leukemia
Assay: antitumor activity in transplantable murine P388 leukemia (i.p. implanted, i.p. treated, CDF1 mice)
Format: in vivo
Settings: 10^6 P388 cells i.p., drug i.p. on days 5 and 8, ratio of MST treated to saline control, maximum effect at the dose in the Dose column (40-240 mg/kg/dose)

`COc1cc([C@@H]2c3cc4c(cc3[C@@H](O[C@@H]3O[C@@H]5CO[C@@H](C)O[C@H]5[C@H](O)[C@H]3O)[C@H]3CN(NCc5ccccc5)C(=O)[C@H]23)OCO4)cc(OC)c1O` [Example 4, 6H-Pyrrolo[3',4':6,7]naphtho[2,3-d]-1,3-dioxole-6-one, 5,5a,7,8,8a,9-hexahydro-9-[(4,6-O-ethylidene-β-D-glucopyranosyl)oxy]-5-[(4-hydroxy-3,5-dimethoxy)phenyl]-7-[(phenylmethyl)amino]-, [5R-[5α,5aβ,8aα,9β(R*)]-] and `COc1cc([C@@H]2c3cc4c(cc3[C@@H](O[C@@H]3O[C@@H]5CO[C@@H](C)O[C@H]5[C@H](O)[C@H]3O)[C@H]3CN(N=Cc5ccccc5)C(=O)[C@H]23)OCO4)cc(OC)c1O` [Example 3, 6H-Pyrrolo[3',4':6,7]naphtho[2,3-d]-1,3-dioxole-6-one, 5,5a,7,8,8a,9-hexahydro-9-[(4,6-O-ethylidene-β-D-glucopyranosyl)oxy]-5-[(4-hydroxy-3,5-dimethoxy)phenyl]-7-[(phenylmethylene)amino][5R-[5α,5aβ,8aα,9β(R*)]-] are the same in “Max % T/C” value: 135 % T/C for the first, 135 % T/C for the second.

Compared with `CCCCCCCC(=O)Oc1c(OC)cc([C@@H]2c3cc4c(cc3[C@@H](O[C@@H]3O[C@@H]5CO[C@@H](C)O[C@H]5[C@H](O)[C@H]3O)[C@H]3CNC(=O)[C@H]23)OCO4)cc1OC` [Example 11, 6H-Pyrrolo[3',4':6,7]naphtho[2,3-d]-1,3-dioxole-6-one, 5,5a,7,8,8a,9-hexahydro-9[(4,6-O-ethylidene-β-D-glucopyranosyl)oxy]-5-[(3,5-dimethoxy-4-octanoyloxy)phenyl], [5R-[5α,5aβ,8aα,9β(R*)]-], `CCCCCCCC(=O)Oc1c(OC)cc([C@@H]2c3cc4c(cc3[C@@H](O[C@@H]3O[C@@H]5CO[C@@H](C)O[C@H]5[C@H](O)[C@H]3O)[C@H]3CN(N=Cc5ccccc5)C(=O)[C@H]23)OCO4)cc1OC` [Example 10, 6H-Pyrrolo[3',4':6,7]naphtho[2,3-d]-1,3-dioxole-6-one, 5,5a,7,8,8a,9-hexahydro-9-[(4,6-O-ethylidene-β-D-glucopyranosyl)oxy]-5-[(3,5-dimethoxy-4-octanoyloxy)phenyl]-7-[(phenylmethylene)amino]-, [5R-[5α,5aβ,8aα, 9β(R*)]-] is lower in “Max % T/C” value: 140 % T/C for the first, 100 % T/C for the second.

Compared with `CCCCCCCC=NN1C[C@H]2[C@H](C1=O)[C@H](c1cc(OC)c(O)c(OC)c1)c1cc3c(cc1[C@H]2O[C@@H]1O[C@@H]2CO[C@@H](C)O[C@H]2[C@H](O)[C@H]1O)OCO3` [Example 9, 6H-Pyrrolo[3',4':6,7]naphtho[2,3-d]-1,3-dioxole-6-one, 5,5a,7,8,8a,9-hexahydro-9-[(4,6-O-ethylidene-β-D-glucopyranosyl)oxy]-5-[(4-hydroxy-3,5-dimethoxy)phenyl]-7-[(octylidene)amino]-, [5R-[5α,5aβ,8aα,9β(R*)]-], `COc1cc([C@@H]2c3cc4c(cc3[C@@H](O[C@@H]3O[C@@H]5CO[C@@H](C)O[C@H]5[C@H](O)[C@H]3O)[C@H]3CN(N=C(C)C)C(=O)[C@H]23)OCO4)cc(OC)c1O` (relative stereo) [Example 8, 6H-Pyrrolo[3',4':6,7]naphtho[2,3-d]-1,3-dioxole-6-one, 5,5,a,7,8,8a,9-hexahydro-9-[(4,6-O-ethylidene-β-D-glucopyranosyl)oxy]-5-[(4-hydroxy-3,5-dimethoxy)phenyl]-7-[(2-propylidene)amino]-, [5 R-[5α,5aβ,8aα,9β(R*)]-] is higher in “Max % T/C” value: 170 % T/C for the first, 205 % T/C for the second.

Compared with `COc1cc([C@@H]2c3cc4c(cc3[C@@H](O[C@@H]3O[C@@H]5CO[C@@H](C)O[C@H]5[C@H](O)[C@H]3O)[C@H]3CN(N)C(=O)[C@H]23)OCO4)cc(OC)c1O` [Example 7, 6H-Pyrrolo[3',4':6,7]naphtho[2,3-d]-1,3-dioxole-6-one, 5,5a,7,8,8a,9-hexahydro-7-amino-9-[(4,6-O-ethylidene-β-D-glucopyranosyl)oxy]-5-[(4-hydroxy-3,5-dimethoxy)phenyl]-, [5R-[5α,5aβ,8aα,9β(R*)]-], `COc1cc([C@@H]2c3cc4c(cc3[C@@H](O[C@@H]3O[C@@H]5CO[C@@H](C)O[C@H]5[C@H](O)[C@H]3O)[C@H]3CNC(=O)[C@H]23)OCO4)cc(OC)c1O` [Example 5, 6H-Pyrrolo[3',4':6,7]naphtho[2,3-d]-1,3-dioxole-6-one,5,5a,7,8,8a,9-hexahydro-9-[(4,6-O-ethylidene-β-D-glucopyranosyl)oxy]-5-[(4-hydroxy-3,5-dimethoxy)phenyl]-, [5R-[5α,5aα,8aα, 9β(R*)]-] is lower in “Max % T/C” value: 200 % T/C for the first, 185 % T/C for the second.

Going from `COc1cc([C@@H]2c3cc4c(cc3[C@@H](O[C@@H]3O[C@@H]5CO[C@@H](C)O[C@H]5[C@H](O)[C@H]3O)[C@@H](CO)[C@@H]2C(N)=O)OCO4)cc(OC)c1O` (relative stereo) [Example 2, Naphtho[2,3-d]-1,3-dioxole-6-carboxamide, 5,6,7,8-tetrahydro-8-[(4,6-0-ethylidene-β-D-glucopyranosyl)oxy]-5-[(4-hydroxy-3,5-dimethoxy)phenyl]-7-(hydroxymethyl)-, [5Rα,6α,7β,8β(R*)]-] to `COc1cc([C@@H]2c3cc4c(cc3[C@@H](O[C@@H]3O[C@@H]5CO[C@@H](C)O[C@H]5[C@H](O)[C@H]3O)[C@@H](CO)[C@@H]2C#N)OCO4)cc(OC)c1O` [Example 12, Naphtho,[2,3-d]-1,3-dioxole-6-carbonitrile, 5,6,7,8-tetrahydro-8-[(4,6-O-ethylidene-β-D-glucopyranosyl)oxy]-5-[(4-hydroxy-3,5-dimethoxy)phenyl]-7-(hydroxymethyl)-,[5R-[5α,6α,7β,8β(R*)]-], the “Max % T/C” value rises from 135 % T/C to 150 % T/C.

With `COc1cc([C@@H]2c3cc4c(cc3[C@@H](O[C@@H]3O[C@@H]5CO[C@@H](C)O[C@H]5[C@H](O)[C@H]3O)[C@H]3CN(N=Cc5ccc([N+](=O)[O-])cc5)C(=O)[C@H]23)OCO4)cc(OC)c1O` [Example 6, 6H-Pyrrolo[3',4':6,7]naphtho[2,3-d]-1,3-dioxole-6-one, 5,5a,7,8,8a,9-hexahydro-9-[(4,6-O-ethylidene-δ-D-glucopyranosyl)oxy]-5-[(4-hydroxy-3,5-dimethoxy)phenyl]-7-[[(4-nitrophenyl)methylene]amino], [5R-[5α,5aβ,8aα,9β(R*)]-] the “Max % T/C” value was 123 % T/C.
